Assay results from paper PMC4336329 (PLoS ONE, 2015).
Screen size: about 310,000 compounds; about 14,000 (4.5%) showed an effect of 50% or more. The effect is printed as a negative number. The list shows a part of the results.

Biological target: human ether-à-go-go-related gene (hERG) potassium channel (human, UniProt Q12809)
Assay: primary screen, population patch clamp on CHO cells stably expressing hERG
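Further: peak tail current of the secondary pulse compared with the same well before compound.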

human ether-à-go-go-related gene (hERG) potassium channel, sequence (Q12809 whole entry, looked up): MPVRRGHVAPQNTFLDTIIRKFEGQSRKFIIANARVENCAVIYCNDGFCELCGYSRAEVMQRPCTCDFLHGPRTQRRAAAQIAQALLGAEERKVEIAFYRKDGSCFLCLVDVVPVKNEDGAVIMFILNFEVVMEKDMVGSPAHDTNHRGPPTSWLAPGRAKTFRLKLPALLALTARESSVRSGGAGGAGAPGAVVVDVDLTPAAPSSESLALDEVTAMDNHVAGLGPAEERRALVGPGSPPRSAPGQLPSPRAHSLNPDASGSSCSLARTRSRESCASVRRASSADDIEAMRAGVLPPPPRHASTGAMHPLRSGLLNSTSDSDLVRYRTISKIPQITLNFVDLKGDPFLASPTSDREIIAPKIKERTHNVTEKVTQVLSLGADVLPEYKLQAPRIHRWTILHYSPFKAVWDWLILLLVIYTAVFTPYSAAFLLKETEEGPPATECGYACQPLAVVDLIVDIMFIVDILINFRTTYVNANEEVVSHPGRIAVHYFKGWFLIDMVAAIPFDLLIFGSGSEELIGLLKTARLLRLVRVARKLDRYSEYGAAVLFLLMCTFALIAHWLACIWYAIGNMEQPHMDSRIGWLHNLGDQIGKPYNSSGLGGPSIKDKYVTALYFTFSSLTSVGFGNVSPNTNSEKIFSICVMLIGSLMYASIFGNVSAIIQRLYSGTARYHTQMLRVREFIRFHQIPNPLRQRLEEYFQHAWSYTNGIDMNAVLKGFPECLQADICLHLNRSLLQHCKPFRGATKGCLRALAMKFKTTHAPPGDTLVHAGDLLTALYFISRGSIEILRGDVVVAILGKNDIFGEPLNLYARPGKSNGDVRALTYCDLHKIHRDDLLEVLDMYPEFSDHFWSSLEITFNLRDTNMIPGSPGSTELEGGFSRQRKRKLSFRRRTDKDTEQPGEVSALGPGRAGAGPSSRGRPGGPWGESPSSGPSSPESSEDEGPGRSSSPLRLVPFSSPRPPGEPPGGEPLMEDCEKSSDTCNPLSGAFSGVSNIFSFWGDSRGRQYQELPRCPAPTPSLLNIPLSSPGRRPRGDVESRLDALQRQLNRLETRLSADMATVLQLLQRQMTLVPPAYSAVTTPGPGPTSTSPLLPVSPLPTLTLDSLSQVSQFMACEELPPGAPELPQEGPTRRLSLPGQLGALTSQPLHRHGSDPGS

SMILES | hERG current change (%, negative = inhibition) at 10uM
CCOc1cc(C2C3=C(CC(C)(C)CC3=O)N(CCOC)C3=C2C(=O)CC(C)(C)C3)ccc1OC | -11.4%
Cc1cc(C)cc(N(CC(=O)NC(C)(C)C)C(=O)CCC(=O)Nc2ccccn2)c1 | 5.32%
COc1ccccc1S(=O)(=O)Cc1ccc(C(=O)NCc2cccs2)o1 | -36.1%
Cc1cccc(NC(=O)COC(=O)CCc2c[nH]c3ccccc23)c1C | -6.32%
COc1ccc(-n2cnnc2SCC(=O)Nc2ccc(C(N)=O)cc2)cc1 | 9.51%
CN(C)CCCNC(=O)c1ccc(Cl)c(S(=O)(=O)N2CCCCCC2)c1.Cl | -72.4%
Cn1c(CC(=O)c2ccc(Br)cc2)[n+](C)c2ccccc21.[Cl-] | 3.46%
O=C(Cc1cc(=O)[nH][nH]1)N/N=C/c1ccccc1Cl | -10.3%
COc1cc2c3c(c1OC)-c1cc(O)ccc1CC3NCC2.Cl (stereo not drawn) | -31.5%
CCOc1ccc(NC(=O)CSc2nnc(CNC(=O)c3ccco3)o2)cc1 | -10.2%
CC(=O)NC1C(OCc2ccccc2)OC2COC(c3ccccc3)OC2C1OCC(=O)O (stereo not drawn) | 27.6%
COc1ccccc1CNc1nc2nc(C)c(C)c(=O)n2[nH]1 | -13.5%
COc1ccccc1C(=O)NC(=O)COC(=O)C1CCC1 | -1.72%
CCOC(=O)c1c(NC(=O)c2noc(C)c2[N+](=O)[O-])sc(C(C)=O)c1C | 2.8%
Cc1ccc(C(=O)c2nc(C(=O)NCCO)nc3ccccc23)cc1 | 25.8%
COCCCNC(=O)C1CCCCN1S(=O)(=O)c1ccc(F)cc1 (stereo not drawn) | 9.08%
Cc1cc(=O)n2nc(N3CCC(C(=O)NCCc4ccc(Cl)cc4)CC3)sc2n1 | -54.5%
N#CCCn1c(C(C#N)(CCC#N)CCC#N)nc2ccccc21 | 8.84%
CN1CCN(c2ccccc2NC(=O)c2c(F)cccc2F)CC1 | -19.9%
COCCn1cnc2c1c(=O)n(CC(=O)NCC(F)(F)F)c(=O)n2Cc1ccccc1 | 11.9%
Cc1nc(SCC(=O)Nc2cc(C)on2)c2c(=O)n(C)c(=O)n(C)c2n1 | -0.204%
CC1Cc2ccccc2N1S(=O)(=O)c1cccc2nsnc12 (stereo not drawn) | -7.34%
O=[N+]([O-])c1cc(S(=O)(=O)NCCN2CCOCC2)ccc1Cl | 9.13%

SMILES | hERG current change (%, negative = inhibition) at 10uM
Cc1ccc(C)c2nc(Cl)c(C#N)cc12 | 24.6%
COc1ccc(NS(=O)(=O)c2ccc(C)c(C(=O)NNC(=O)c3csc(N4CCOCC4)n3)c2)cc1 | -11.3%
Cc1ccc(C(=O)Nc2ccc3c(c2)C(=O)NC3=O)cc1 | 22.4%
CC(C)C[C@H](NC(=O)N1CCn2c1nc1ccccc12)C(=O)NCC1CCCO1 (stereo partly drawn) | 15.6%
COc1ccc(/C=C/C(=O)Nc2sc3c(c2C(=O)NCc2cccnc2)CCCC3)cc1 | -2.49%
Cn1c(CC(=O)Nc2ccc(F)cc2)c(Sc2ccccc2)c2ccccc21 | 8.87%
COc1ccc(NC(=O)Nc2cccc(OC)c2)cc1 | -0.126%
O=C(COc1ccccc1)NCCSCc1ccc(Cl)cc1 | -12.6%
COC(=O)c1ccc(CN(C(C)=O)c2ccccc2)o1 | 7.25%
Cc1ccc(/C=N/n2c(COc3ccccc3)n[nH]c2=S)s1 | 14.6%
COc1ccc(C)cc1Nc1n[n+](-c2ccccc2)c(-c2c(Cl)cccc2Cl)s1.[Cl-] | -55.9%
CCOC(=O)c1ccc(CC2S/C(=C(\C#N)C(C)=O)NC2=O)cc1 (stereo not drawn) | 4.34%
CCOC(=O)C(Cc1ccccc1)NC(=O)CCc1nnc2ccc(N3CCCCC3)nn12 (stereo not drawn) | -12.2%
Cc1ccc(C(C(=O)NCCc2ccccc2)N(C(=O)c2csnn2)C2CC2)cc1 (stereo not drawn) | -16.1%
COc1ccccc1-c1ccc(=O)n(CC(=O)NCC2CCCO2)n1.Cl (stereo not drawn) | -0.834%
CCc1cc2c(Nc3ccccc3O)nc(C)nc2s1.Cl | 18.8%
O=C(Cc1c(F)c(F)c(F)c(F)c1F)OC12CC3CC(C1)C(=O)C(C3)C2 | -11%
c1ccc2c(c1)NC(CN1CCOCC1)CO2 (stereo not drawn) | 2.98%
CCCNc1nc2c(c(=O)[nH]c(=O)n2C)n1CCCc1ccccc1 | 5.73%
COC(=O)c1ccc(COC(=O)c2ccc(SC)cc2OC)cc1 | 5.86%
COc1cc(C2c3c(-c4cc(Cl)c(C)cc4O)n[nH]c3C(=O)N2Cc2cccnc2)ccc1O (stereo not drawn) | -1.14%
CC(C)C[C@H](NC(=O)OC(C)(C)C)C(=O)N[C@@H](CO)[C@H](O)[C@@H]1C[C@@H]1C(=O)NC1CC1 | 15.4%
